Experimental data from PubChem BioAssay AID662 (National Center for Advancing Translational Sciences (NCATS), 2007).
The campaign covered roughly 71,000 compounds. About 1,800 (2.5%) were called active. The inconclusive results got no clear call from the source; some entries with a clear call stand among them for comparison. Calls come from the whole dose curve; as a rule, active = well fitted activation curve with a large enough effect in the signal ratio, with a control signal flat (not every such curve was filed as active); inconclusive = small, poorly fitted or top-dose-only effect, or effect the other way, or a change in a side signal; inactive = flat fitted curve, though single readings scatter; the % refers to the signal ratio. Potencies beside an inconclusive call are fits to weak or partial responses and may not hold up.
Potency is the fitted concentration of half-maximal effect; tags give direction and shape of the fitted curve.

Test: Cell signaling CRE-BLA (Fsk stim); for activity change, negative = inhibition: % of control where 0% means no effect
Details: CHO CRE-bla reporter (cAMP response element driving beta-lactamase), forskolin EC10, beta-lactamase ratio; activity change, negative = inhibition: at 38.2 µM (top of the series) unless noted
How it was run: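 CHO CRE-bla cells, overnight plating in Opti-MEM with 0.5% dialyzed FBS; cpd titration + EC10 NKH 477, 3 h 37 °C; CCF4 2 h RT; ex 405/em 460 vs 530 ratio → %Activity, AC50.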
In the case of `O=C(CCn1c(=O)c2sccc2n(Cc2cc(=O)n3ccccc3n2)c1=O)NCc1ccco1`, the activity change, negative = inhibition is reported as inconclusive: -4.1%.
With `COc1ccccc1N1CCN(C/C=C/c2ccc(N(C)C)cc2)CC1` the activity change, negative = inhibition was “inactive”.
With `O=C(NCCOc1ccc(Cl)cc1)C1CC(=O)N(c2ccc(F)cc2)C1` (stereo unspecified) the Potency was inconclusive: 1.58 µM [falling, partial curve, poor fit].
With `c1nnc2c3c4c(sc3ncn12)CCCC4` the activity change, negative = inhibition was “inactive”.
For `Cc1cccc(N2CCN(C(=O)C3CCN(c4nnc(-n5cccc5)s4)CC3)CC2C)c1` (stereo unspecified), the Potency was inconclusive: 5.01 µM [falling, partial curve].
In the case of `COc1ccccc1NC(=O)CC1Nc2ccccc2NC1=O` (stereo unspecified), the Potency is reported as inconclusive: 12.6 µM [rising, partial curve].
For `CCOC(=O)NC(CC(=O)O)c1ccc(OCC)cc1` (stereo unspecified), the Potency was inconclusive: 0.02 µM [falling, full curve, poor fit].
In the case of `CCOCCCNS(=O)(=O)c1ccc2c(c1)CCN2C(=O)CC`, the activity change, negative = inhibition is reported as inconclusive: -1.14%.
For `O=C(CN1CCOCC1)Nc1cccc(Br)c1`, the activity change, negative = inhibition was inconclusive: -8.01%.
In the case of `C=CCn1c(N)c(C(=O)NCC2CCCO2)sc1=S` (stereo unspecified), the activity change, negative = inhibition is reported as “inactive”.
With `COc1ccc(N(C(C)=O)S(=O)(=O)c2cc(OC)ccc2OC)cc1` the Potency was inconclusive: 25.1 µM [rising, single point].
In the case of `CC(C)NC(=O)c1cc2c(-c3ccc(Cl)cc3)nn(C)c2s1`, the activity change, negative = inhibition is reported as “inactive”.
In the case of `Clc1ccccc1-c1ccc2ncnc(N3CCNCC3)c2c1`, the Potency is reported as inconclusive: 10 µM [rising, single point].
In the case of `CCOC(=O)C(C#N)c1ccccn1` (stereo unspecified), the activity change, negative = inhibition is reported as “inactive”.
In the case of `C[N@@+]1(Cc2ccc(Cl)c(Cl)c2)CCC[C@@H]1c1ccc[n+](Cc2ccc(Cl)c(Cl)c2)c1`, the activity change, negative = inhibition is reported as inactive: -1.66% [at 7.6 µM].
For `CC1(C(=O)Nc2nccs2)Cc2ccccc2C(=O)O1` (stereo unspecified), the activity change, negative = inhibition was inconclusive: -15.9%.
For `Cc1nn(CC(=O)Nc2ccc(C(=O)N3CCCCC3)cc2)c(=O)c2ccccc12`, the Potency was inconclusive: 5.01 µM [rising, single point].
With `Cc1nc2ccc(NC(=O)C3CCN(S(=O)(=O)c4cccs4)CC3)cc2s1` the Potency was inconclusive: 5.01 µM [falling, single point].
For `CCCn1c(-c2ccc(F)cc2)nc2c(NCCCCN(CC)CC)nc(C)nc21`, the activity change, negative = inhibition was “inactive”.
In the case of `c1csc(Cc2nc3ccccc3[nH]2)c1`, the activity change, negative = inhibition is reported as inconclusive: 7.06%.
In the case of `CC(C)N1C(=O)CCC1C(=O)NCCc1ccccc1` (stereo unspecified), the activity change, negative = inhibition is reported as “inactive”.
For `O=C(c1cccc(F)c1)N1CCC2(CC1)CN(C(c1ccccc1)c1ccccc1)C2`, the activity change, negative = inhibition was “inactive”.
With `CCCCn1c(CN(C)Cc2ccccc2)nc2c1c(=O)n(C)c(=O)n2C` the Potency was inconclusive: 12.6 µM [rising, single point].
In the case of `COc1ccc(O)c(-c2[nH]ncc2C(=O)c2ccccc2C)c1`, the activity change, negative = inhibition is reported as inconclusive: 9.71%.
In the case of `O=Nc1ccc(NO)cc1`, the activity change, negative = inhibition is reported as inconclusive: -28.9%.
With `Cc1cc2ncn(C3CC(=O)N(Cc4ccccc4)C3=O)c2cc1C` (stereo unspecified) the activity change, negative = inhibition was inconclusive: 14.9%.
With `O=C(Nc1ccccc1)C1=C(N2CCOCC2)/C(=C/c2cccnc2)CC1` the Potency was inconclusive: 5.01 µM [falling, single point].
With `Cc1cc(C(=O)CSc2nnc(Cc3ccccc3)o2)c(C)n1Cc1ccc2c(c1)OCO2` the activity change, negative = inhibition was inconclusive: -15.9%.
With `c1csc(-c2nn3c(-c4ccncc4)nnc3s2)c1` the activity change, negative = inhibition was inconclusive: 18.4%.
In the case of `CCc1cc2c(CN3CCN(CCO)CC3)cc(=O)oc2cc1O`, the Potency is reported as inconclusive: 10 µM [rising, partial curve].
With `Cc1cccc(-c2nc(CS(=O)CC(=O)N3CCN(C)CC3)c(C)o2)c1` (stereo unspecified) the activity change, negative = inhibition was “inactive”.
In the case of `CN(C)c1ccc(C2N(C(=O)N3CCOCC3)CCN2S(=O)(=O)c2ccccc2)cc1` (stereo unspecified), the activity change, negative = inhibition is reported as inconclusive: 0.916%.
With `O=C(O)CC12C[C@H]3C[C@@H](CC(O)(C3)C1)C2` the activity change, negative = inhibition was inactive: -6.49% [at 7.6 µM].
For `Cc1sc2ncn3c(C)nnc3c2c1C`, the activity change, negative = inhibition was inconclusive: 24.3%.
For `CCCCCC(=O)Nc1cccc(-c2nc3ncccc3o2)c1`, the activity change, negative = inhibition was inconclusive: 20.1%.
For `O=C1CC(c2ccc(F)cc2)Cc2nc(N3CCc4ccccc43)ncc21` (stereo unspecified), the Potency was inconclusive: 15.8 µM [rising, single point].
For `COc1ccc(C)cc1NS(=O)(=O)c1cccc2nonc12`, the activity change, negative = inhibition was “inactive”.
With `Cc1noc(C)c1-c1nccc(-n2ccnc2)n1` the Potency was inconclusive: 10 µM [rising, partial curve].
In the case of `Cc1cccc(OCC(=O)Nc2ccccc2N2CCN(C(=O)C(C)C)CC2)c1C`, the activity change, negative = inhibition is reported as “inactive”.
For `CCOC(=O)c1cc(C#N)c(SCc2ccc(C#N)cc2)nc1C`, the activity change, negative = inhibition was inconclusive: 3.39%.
In the case of `Cc1ccc(C2C3=C(CC(C)(C)CC3=O)N(CCN3CCOCC3)C3=C2C(=O)CC(C)(C)C3)cc1`, the Potency is reported as inconclusive: 10 µM [rising, partial curve].
In the case of `COc1ccc(C)cc1S(=O)(=O)N(C)CC(=O)NCc1ccco1`, the activity change, negative = inhibition is reported as inconclusive: -23.8%.
For `O=C(Cn1nc(-c2ccccc2)ccc1=O)Nc1ccc(N2CCN(C(=O)c3ccccc3)CC2)cc1`, the Potency was inconclusive: 10 µM [falling, partial curve].
For `O=C(Nc1c(C(=O)N2CCOCC2)cnn1-c1ccccc1)c1ccccc1`, the Potency was inconclusive: 0.631 µM [rising, full curve, poor fit].
In the case of `Cc1ccc(C(=O)CC2(O)C(=O)N(CN3CCOCC3)c3ccccc32)cc1` (stereo unspecified), the activity change, negative = inhibition is reported as inconclusive: 7.74%.
With `c1ccc(C2=NN[C@@H]3c4ccccc4-c4ccccc4N3C2)cc1` the activity change, negative = inhibition was inactive: 9.21% [at 7.6 µM].
In the case of `Cc1ccc(SC/C(O)=C(\C#N)c2nc3ccccc3n2C)cc1`, the Potency is reported as inconclusive: 7.94 µM [rising, partial curve].
With `Cn1c(=O)oc2cc(S(=O)(=O)N3CCC(C(=O)Nc4ccc(OC(F)(F)F)cc4)CC3)ccc21` the Potency was inconclusive: 10 µM [rising, single point].
With `COc1cccc(C(c2sc3nc(C)nn3c2O)N2CCc3ccccc3C2)c1` (stereo unspecified) the activity change, negative = inhibition was “inactive”.
In the case of `CCCn1nc(C(=O)NCCN2CCOCC2)c2ccccc2c1=O`, the Potency is reported as inconclusive: 2 µM [rising, partial curve].
With `Fc1ccc(COc2ccc(/C=N/n3cnnc3)cc2)cc1` the activity change, negative = inhibition was inconclusive: 7.58% [at 7.6 µM].
